Laboratory results taken from paper PMC12136788.
This is one part of the list.

T1: UNK ZnF1-3 (human, UniProt Q9C0B0 31-174)
T1 sequence: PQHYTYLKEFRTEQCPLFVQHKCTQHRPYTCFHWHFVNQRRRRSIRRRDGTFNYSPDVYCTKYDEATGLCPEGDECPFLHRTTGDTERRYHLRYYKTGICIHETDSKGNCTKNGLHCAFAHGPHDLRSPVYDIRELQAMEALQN

B1: chr7:143080189:143080190:+_ENSG00000159840_ENST00000392910|hu_mus|FALSE|FALSE (ssRNA)
RNA: GGGAGUUCUACAGUCCGACGAUCUGGAGCACCAGGGCUGAACUUGGAAACCACGGGAGUAAAUUUAGGAGCCACUGGAGCAAACUUAGGUGCUGGAGUUGGUGCCUGAGAAAGGGGACCCCGGGGCUGUGUAUUAGCAGAAGACAACAGAGGAUUGAGCAUCA
B2: chrX:20248820:20248821:+_ENSMUSG00000001924_ENSMUST00000001989|mus_mus|mus_mus_mus_hu_True|48_58 (ssRNA)
RNA: GGGAGUUCUACAGUCCGACGAUCGGCGAAGUCCGUCACCACAAAGUCAGGUUCUGCCAGUGAGGCCACCAAGGAUUUAAAACUAAUCUUUUUCGGUACUUUGACCUGACUGACGAUGCCUCCACGGAUGUAGUCGGAGAAGUUCAACAGAGGAUUGAGCAUCA
B3: chr2:216981417:216981418:+_ENSG00000079246_ENST00000392132|hu_hu|hu_hu_hu_mus_True|28_88 (ssRNA)
RNA: GGGAGUUCUACAGUCCGACGAUCCUGAUACUGGUCCUUGCCAGCAAGGGGAUUGUCAGUGCCAUCUGUGCCAUAGAGGACUAACGCAAUCUCAUCUUUGCUCUCCGCAAACACCUGUCGUUGGACAAACAUAGUCAUCACUUUCAACAGAGGAUUGAGCAUCA
B4: chr2:179515052:179515053:+_ENSMUSG00000000305_ENSMUST00000000314|mus_hu|mus_mus_mus_hu_False|58_108 (ssRNA)
RNA: GGGAGUUCUACAGUCCGACGAUCGCUUUCCCGCGCAGUCACCGUGAACGCCACCUGCUCGGAGGGGACCUGCAGCUCCCUAGUGGCGAAGACUGUCCCAUCUGCCCCAACUUUGAAGUCCAUGCUGUUGGUCUCAUAUUGUGUCAACAGAGGAUUGAGCAUCA
B5: chrX:153990882:153990883:-_ENSMUSG00000046873_ENSMUST00000058098|mus_hu|motif|central (ssRNA)
RNA: GGGAGUUCUACAGUCCGACGAUCAGCUCCUGAGAGGGAAAUCAGGUACUUGACAAAUGUCUCCACAACCACUGGCAGAUCGGUGCUUAGAAAGUUAAAACGUGGGAUAAAACUGGUGAUGCUCACUGUGUAGUGAAGAUGCAGCAACAGAGGAUUGAGCAUCA
B6: 195013173_195016455_1944_3pUTR_ENSG00000114331_ENST00000326793|human|control|control (ssRNA)
RNA: GGGAGUUCUACAGUCCGACGAUCUUCUCCUUCAGGCUCAUAUAAACUAUUGGCUGACACCGUGGAGGGUAAAGAUUCUCUUCCAUCAUCAGAGCUCUGCUGAAUUCCACUGUCAUUACUUCUGACUGAACUUUGGGCAGAUGCCAACAGAGGAUUGAGCAUCA
B7: 38089502_38089622_476_5pUTR_ENSMUSG00000022812_ENSMUST00000023507|mouse|control|control (ssRNA)
RNA: GGGAGUUCUACAGUCCGACGAUCGGGGCUGCUCUGUGCGAGGCGCGCCGUCUGCGCAGCCGCCUAGCCCUUCCCCACUCCCCCUCCCCCUUCCUACUCGUCCUCCGCCUCCUUCCUCCCCCACCCAGCCCUUACACCGCCCAGCAACAGAGGAUUGAGCAUCA
B8: 117957435_117984873_1551_3pUTR_ENSG00000198162_ENST00000356554|human|control|control (ssRNA)
RNA: GGGAGUUCUACAGUCCGACGAUCCACUGCUUUAAUCUUGAAUAUCUCCUCUCCUGAUAGGUAAUAUGCUGCAAGUAGGCCUCCAAUAAAUCGAAUGUUGACUUCAAACACAGACACCUCUGAAUUCACACUGAAAUCAAGGUUCAACAGAGGAUUGAGCAUCA
B9: 135279348_135279468_1970_CDS_ENSG00000155561_ENST00000285968|human|control|control (ssRNA)
RNA: GGGAGUUCUACAGUCCGACGAUCUUCCAAUGACUGCCAGAGGGAAGCAGCAAUUUCAGGAGAUUUUCCAAAAGCUGCGAGUGUCUUCAGUAGCUCAGCUUUUAGGACAGGGGGAAUACUGCAUUGGAGGAGUCCCAGAAUCACCAACAGAGGAUUGAGCAUCA
B10: 15159152_15162069_1653_3pUTR_ENSG00000085721_ENST00000198767|human|control|control (ssRNA)
RNA: GGGAGUUCUACAGUCCGACGAUCGGUACUCCUAAUGACUGGCAGCAUCUGGCGAUUGUUCCUCUCAAUGAUGGUGUAGCAGAAGACGAGCUGGUACUUAUUUGUGAUUGCAGCAAAAAAGUUAACCACUGAGGGCAGGCAAAUCAACAGAGGAUUGAGCAUCA
B11: chr4:115894766:115894767:+_ENSMUSG00000028698_ENSMUST00000030464|mus_hu|mus_mus_mus_hu_True|1_18 (ssRNA)
RNA: GGGAGUUCUACAGUCCGACGAUCUUCCACACGGAAAUGUACUUCGGGUUUUCCAACGGCCAGUACCAGUCCGGCCAAACUACCCGAACAGGGUCCUCCCCCUCUCUCCUACAGAACUAAAGCACCCGCCCCCGAACCCCGAACCAACAGAGGAUUGAGCAUCA
B12: chr4:128986876:128986877:-_ENSMUSG00000057236_ENSMUST00000102598|mus_hu|FALSE|FALSE (ssRNA)
RNA: GGGAGUUCUACAGUCCGACGAUCCUGCUGGUGAAACAGGUCACCCAAAAUGGAGAUGGCAUCAAACUAGUGGUCAAGGACUAACUCCAUUUGCCACACUUGCAUGAUAUUGUCUUCUGAUACAGAACAAAUCACCCAAGGUUCCAACAGAGGAUUGAGCAUCA
B13: 74896617_74897821_1695_CDS_ENSG00000122882_ENST00000372979|human|control|control (ssRNA)
RNA: GGGAGUUCUACAGUCCGACGAUCUAAACAUUCAAAGUCUUCAUCAUCCAGAUCAUCAGAAUCUGACUCAUUAGGCCUUGGCCCUAAAAUCUUAUCAAAAUAAUUAAGAAAAGAAUCUGCAUCAAAAGUGAUUGGAGCCUCAGACAACAGAGGAUUGAGCAUCA
B14: chr6:35837335:35837336:-_ENSG00000096063_ENST00000361690|hu_hu|FALSE|FALSE (ssRNA)
RNA: GGGAGUUCUACAGUCCGACGAUCUUGCUCUUGUUCAUCUUCACAGGGUAUCUCUGCCCGAAUGCUUUCUUGAAGUUGGCUAAUGUGUUGUUCACUGAAUGACUGACCUACAGUUGAGGAAGACUGGCACACCAUGGUGUCUGACAACAGAGGAUUGAGCAUCA

Target: T1, UNK ZnF1-3
Experiment: nsRBNS (natural sequence RNA bind-n-seq); RBNS binding buffer (assumed for nsRBNS): 25 mM Tris pH 7.5, 150 mM KCl, 3 mM MgCl2, 0.01% Triton X-100, 500 ug/ml BSA, 20 U/ml SUPERase-In, 4 C; UNK is unkempt and MSI1 is Musashi-1; names of the RNAs are library labels; protein concentration not given here; high values mean tight binding

**Q.** How did the binding signal turn out when B1 was run?
**A.** 2.14 enrichment R

**Q.** Which binding signal does the source give for B2 here?
**A.** 1.04 enrichment R

**Q.** For B3, which binding signal is on record?
**A.** 1.13 enrichment R

**Q.** Which binding signal does the source give for B4 here?
**A.** 0.74 enrichment R

**Q.** With B5 as the binder, how does the binding signal read?
**A.** 2.07 enrichment R

**Q.** Which binding signal does the source give for B6 here?
**A.** 1.01 enrichment R

**Q.** With B7 as the binder, how does the binding signal read?
**A.** 0 enrichment R

**Q.** For B8, which binding signal is on record?
**A.** 1.31 enrichment R

**Q.** For B9, which binding signal is on record?
**A.** 1.67 enrichment R

**Q.** With B10 as the binder, how does the binding signal read?
**A.** 2.12 enrichment R

**Q.** Which binding signal does the source give for B11 here?
**A.** 1.05 enrichment R

**Q.** With B12 as the binder, how does the binding signal read?
**A.** 1.17 enrichment R

**Q.** How did the binding signal turn out when B13 was run?
**A.** 1.16 enrichment R

**Q.** With B14 as the binder, how does the binding signal read?
**A.** 0.508 enrichment R
